Structures are written as SMILES. About 4,300 (8.3%) of roughly 52,000 compounds were called active. Cut-off read from the data, not from the text of the source: active = survival mostly below about 52% (no sharp cut-off); inactive = mostly above about 56%. The list shows a part of the results.

This assay has as its system DeltatarO mutant. The experiment in a line: S. aureus survival, RN4220 and DeltatarO strains – OD600, teichoic acid synthesis inhibitors, primary screen (AID 463173). As to conditions: S. aureus RN4220 wild type/DeltatarO growth, OD600, 18 h, hits give low values, screened at 18.75 µg/mL (by protocol).
Consider `Cc1ccc(C(=O)c2c(N)c(-c3nc(-c4ccc5c(c4)OCO5)cs3)c3ccccn23)cc1C`, for which the survival is inactive: 94%. For `CCCNC(=O)N1c2ccc(F)cc2CCC1C` (stereo not drawn), the survival was inactive: 87%. The result for `COCc1nn2cc(-c3ccc(C)cc3)nc2s1` reads inactive: 112%; that for `O=C(Nc1nc2c(s1)CCCCCC2)Nc1ccc(F)cc1F`, active: 0%; that for `CCOc1ccc(NC2=NCCC(=O)N2Cc2cccs2)cc1`, inactive: 83%. Turning to `O=C1CSC(=O)N1CC(O)Cn1c2ccccc2c2ccccc21` (stereo not drawn), the survival was inactive: 96%.

On to `COc1ccc(N2CCN(C(c3ccccc3)c3sc4nc(-c5ccco5)nn4c3O)CC2)cc1` (stereo not drawn), for which the survival is inactive: 69%. The figure for `Cc1ccc(C(=O)N2CCc3cc(CNS(=O)(=O)c4cccs4)ccc32)cc1` is inactive: 80%; for `COc1ccc(-c2noc(CSc3nnc(C)n3-c3ccc(C)cc3)n2)cc1OC` it is inactive: 59%.

Take `CN1C(=O)Cc2cc(S(=O)(=O)NCCc3ccc(Cl)cc3)ccc21`: the survival is inactive: 116%. With `CCN(CC)C(=O)Nc1ccc(I)cc1`, the survival was inactive: 82%.

As to `CCOc1ccccc1CNC(=O)C1CCN(S(=O)(=O)c2ccc3[nH]c(=O)ccc3c2)CC1`, the survival is active: 25%.

In the case of `Cc1nc(NCC2CCCO2)c2nnn(Cc3c(F)cccc3Cl)c2n1` (stereo not drawn), the survival is inactive: 59%. Regarding `CC1(C)CC(=O)c2cc(-c3ccccc3)n(CC(=O)O)c2C1`, the survival was inactive: 93%. `CCOc1ccccc1NC(=O)Cn1ncc2c(=O)oc3ccc(C)cc3c21`: the survival was inactive: 94%. The figure for `COc1ccccc1NC(=O)CSC1=Nc2ccccc2C2=NC(CCC(=O)NCCc3ccccc3)C(=O)N12` (stereo not drawn) is inactive: 102%. Turning to `CCOC(=O)c1c(C)oc2ncnc(Nc3ccc(OC)cc3OC)c12`, the survival was inactive: 97%. Regarding `CC(C)c1ccc(NC(=O)c2ccc3c(c2)CCN3S(=O)(=O)c2ccccc2)cc1`, the survival was active: 44%. On to `Cc1cc2ncn(S(=O)(=O)N3CCOCC3)c2cc1C`, for which the survival is inactive: 71%.

As for `O=C(Nc1nnc(S(=O)(=O)N2CCCc3ccccc32)s1)c1ccccc1Cl`, the survival is active: 28%. With `CCN(CC)c1nc2n(c(=S)n1)CCS2`, the survival is inactive: 103%. The result for `COc1ccccc1N1CCN(C(=O)c2cn(CC(C)C)c(=O)c3c2c2ccccc2n3C)CC1` reads inactive: 85%. The figure for `O=C(Nc1ccc(O)c(-c2nc3ccccc3o2)c1)c1sc2ccccc2c1Cl` is inactive: 105%; for `CCCC(=O)c1cc2c(cc1N)OCCO2` it is inactive: 95%; for `CCCOc1ccc(NC(=O)CC2C(=O)N(c3cccc(OC)c3)C(=O)N2Cc2cccs2)cc1` (stereo not drawn) it is inactive: 95%.

`O=C(CSCc1cnn(-c2ccccc2)c1-n1cccc1)NCc1ccc(Cl)cc1`: the survival is inactive: 79%. As to `O=C(NC1CCCCC1NC(=O)c1ccco1)c1ccco1` (stereo not drawn), the survival is inactive: 98%. Take `Cc1cccc(C2C=C(c3ccc(C)c(C)c3)Nc3nnnn32)c1` (stereo not drawn): the survival was active: 6%. Regarding `Cc1nc2ccn(Cc3ccccc3)c(=O)c2cc1C(=O)N1CCN(c2ccccc2F)CC1`, the survival is inactive: 85%. As for `CCOc1ccccc1C(=O)NC1(C(F)(F)F)NC(=O)N(CCc2ccc(OC)c(OC)c2)C1=O` (stereo not drawn), the survival was inactive: 54%.

Consider `COc1cc(OC)cc(-c2cc3nc(C)c(CCC(=O)NCc4ccccc4)c(C)n3n2)c1`, for which the survival is inactive: 95%.

Regarding `COc1cccc(-c2cc(C(=O)N3CCN(c4ccccc4OC)CC3)no2)c1`, the survival was active: -4%. As to `COc1ccc(Cl)cc1NC(=O)Cc1coc2c(C)c(C)ccc12`, the survival was inactive: 89%. With `CCc1ccc(NC(=O)c2sc3nc4c(cc3c2N)CN(CC)CC4)cc1`, the survival was active: 49%. Take `Cc1cc(C)c(NC(=O)CNC2CC(C)(C)NC(C)(C)C2)c(C)c1`: the survival was inactive: 91%. The figure for `O=C(CN1CCN(C(=O)N2CCCCC2)CC1)Nc1ccc(F)cc1` is inactive: 70%; for `O=C(CSc1nnc(CNc2ccc(F)cc2)o1)N1CCOCC1` it is inactive: 119%; for `O=C(Nc1ccc(F)cc1)c1ccc(Cn2nc(N3CCN(c4ccccc4)CC3)ccc2=O)o1` it is inactive: 82%. As for `COC(=O)c1ccc(NC(=O)CCc2c(C)nn(-c3ccc(N4CCOCC4)nn3)c2C)cc1`, the survival was inactive: 78%. Regarding `COc1ccc(CCNc2nc(-c3ccc(Cl)cc3)cc(C(F)(F)F)n2)cc1OC`, the survival was active: 8%. Take `CCOC(=O)c1c(C)[nH]c(C)c1S(=O)(=O)N1CCC(C(=O)N2CCN(c3cccc(C)c3C)CC2)CC1`: the survival is inactive: 94%. Consider `CCc1cccc(NC(=O)Cn2c(=O)c(C(F)(F)F)nc3ccccc32)c1`, for which the survival is inactive: 85%. Consider `Cc1coc2cc3oc(=O)c(CC(=O)N4CCCCC4)c(C)c3cc12`, for which the survival is inactive: 85%. For the compound `Cc1cccc(NC(=O)CN2C(=O)CSC2=O)c1`, the survival was inactive: 98%.

Regarding `Cc1cccc(CSc2nc3cc(C(=O)NC4CCCC4)ccc3c(=O)n2Cc2ccccc2)c1`, the survival is inactive: 69%. The figure for `CCCN(CCC)CC(O)Cn1cc(/C=C/C(=O)c2ccc(OC)cc2)c2ccccc21` (stereo not drawn) is active: 11%. As to `Cc1cc(C)c2c(=O)cc(C(=O)Nc3nc4ccc(F)cc4s3)oc2c1`, the survival is inactive: 61%. As for `Cc1cc(=O)oc2cc3c(cc12)OCCN3`, the survival is inactive: 69%.

Regarding `CCC(CC)C(=O)Nc1c(C(=O)N2CCN(c3ccccc3)CC2)oc2ccccc12`, the survival was inactive: 97%. Turning to `Cc1cc2ncn(CCC(=O)NC(C)(C)C)c2cc1C`, the survival is inactive: 95%. Turning to `O=C(CN(c1ccc2c(c1)OCCO2)S(=O)(=O)c1ccccc1)N1CCCCCC1`, the survival is inactive: 73%.

With `CC1CCN(c2nc3c(-c4cccc(Br)c4)nnn3c3ccccc23)CC1`, the survival is inactive: 104%. With `COc1ccc(OCCn2nnc3sc4c(c3c2=O)CCC(C(C)(C)C)C4)cc1` (stereo not drawn), the survival is inactive: 107%.

`CCOc1ccc(-c2c(C)nn3c(C)c(C(=O)NCc4ccc(Cl)cc4)cnc23)cc1OCC`: the survival was inactive: 119%.

Consider `O=C(CCN1CCc2ccccc2C1)Nc1ccc(F)c(F)c1`, for which the survival is inactive: 102%. Turning to `CCC(NC(=O)Nc1cc(Cl)ccc1OC)c1c(-n2cccc2)sc2c1CCN(C)C2` (stereo not drawn), the survival was inactive: 84%. Take `CCCCCn1c(=O)[nH]c2cc(C(=O)NCCN(C)CCCC)ccc2c1=O`: the survival is inactive: 66%. Consider `CCCCNC(=O)c1cccc(-n2cnc3cccnc32)c1C`, for which the survival was inactive: 83%. The figure for `O=C(c1cccc(F)c1)c1ccc2c(c1)CCCO2` is inactive: 85%; for `CC1CCCCN1C(=O)c1ccc2c(c1)N(Cc1cccc(Cl)c1)C(=O)c1ccccc1S2=O` (stereo not drawn) it is inactive: 103%. In the case of `Cc1cc(N(C)Cc2ccccc2)n2nc(-c3ccc(C(C)(C)C)cc3)nc2n1`, the survival is active: 39%.

For the compound `CN1C(=O)SC(CC(=O)O)C1=O` (stereo not drawn), the survival was inactive: 89%. Regarding `O=C(OCc1ccco1)c1ccc2c(c1)N(Cc1cccc(F)c1)C(=O)c1ccccc1S2`, the survival is inactive: 93%. In the case of `COc1ccc(Br)c(C(=O)Nc2cc3c(cc2N2CCCC2)n(C)c(=O)c(=O)n3C)c1`, the survival is inactive: 94%.

Take `Cc1ccc(-c2cc(C(=O)OCC(=O)c3ccccc3)c3cccc(Cl)c3n2)cc1`: the survival is inactive: 67%. Regarding `CCOc1ccccc1NC(=O)CC(c1ccc(F)cc1)N1Cc2ccccc2C1=O` (stereo not drawn), the survival is inactive: 99%.

On to `N=c1n(CCO)c2ccccc2n1Cc1ccccc1F`, for which the survival is active: 47%. As for `COc1ccc(CCNC(=O)c2cc(=O)c3cc(C)cc(C)c3o2)cc1OC`, the survival was inactive: 57%. The result for `COc1ccc(-c2nc(SCC(=O)c3ccc(Br)cc3)n[nH]2)cc1` reads inactive: 194%; that for `Cc1c(CNC2CCC(C)CC2)c(C(=O)O)c(C)n1Cc1ccccc1F` (stereo not drawn), inactive: 83%; that for `CCC1CN(C(=O)Nc2ccccc2C(F)(F)F)c2ccccc2O1` (stereo not drawn), inactive: 60%. The figure for `CCOc1ccccc1C1C(C(N)=O)=C(C)Nc2nc(-c3ccccc3Cl)nn21` (stereo not drawn) is inactive: 138%. The figure for `CCN1C(=O)C2(C(C#N)=C(N)SC(N)=C2C#N)c2ccccc21` is active: 2%; for `Cc1cccc(N2CC(c3nc4ccc(C)cc4[nH]3)CC2=O)c1` (stereo not drawn) it is inactive: 98%; for `Cc1ccc2c(c1)c(=O)c(C(=O)c1ccccc1)cn2Cc1ccccc1F` it is inactive: 77%.

Regarding `COc1ccc(NC(=O)CC2C(=O)N(c3ccccc3)C(=O)N2CCC2=CCCCC2)cc1` (stereo not drawn), the survival is inactive: 51%.

For the compound `COc1ccc(S(=O)(=O)N(CC(=O)Nc2ccc(OC)cc2OC)c2ccc(Cl)cc2)cc1`, the survival is inactive: 126%. Consider `COc1cc(NC(=O)C2CCN(S(=O)(=O)c3c(C)noc3/C=C/c3cccs3)CC2)cc(OC)c1`, for which the survival was inactive: 54%.

Regarding `CCN1C(=O)c2ccccc2S(=O)c2ccc(C(=O)NCc3ccc(C)cc3)cc21` (stereo not drawn), the survival was inactive: 58%. Turning to `CSc1nnc(Cc2ccccc2)n1-c1ccc(C)cc1`, the survival is inactive: 78%.

`COC(=O)c1ccc(C2C=C(c3ccc(Cl)cc3)Nc3nc4ccccc4n32)cc1` (stereo not drawn): the survival was inactive: 86%. Regarding `O=C(CSc1nc(-c2ccc(F)cc2)nc2c1Cc1ccccc1O2)Nc1cccc(C(=O)O)c1`, the survival is inactive: 63%. Consider `CCOc1ccccc1-c1noc(CCCC(=O)Nc2cccc(C(F)(F)F)c2)n1`, for which the survival is inactive: 61%. Regarding `N#Cc1cccc(NC(=O)C2CCN(c3cnccn3)CC2)c1`, the survival is inactive: 89%. With `O/N=C/c1cn(-c2ccccc2)nc1-c1ccccc1`, the survival was inactive: 73%. On to `CCOc1ccc(NC(=O)CC2C(=O)N(c3ccc(C)cc3)C(=O)N2C2CCCCC2)cc1` (stereo not drawn), for which the survival is inactive: 64%. The result for `O=C(NC1(C(F)(F)F)N=C(c2ccccc2)N(C2CCCCC2)C1=O)c1ccc(F)cc1` (stereo not drawn) reads inactive: 80%; that for `Cc1cc(C)n(CCc2nc3c4ccccc4nc(SCc4ccc(Cl)cc4)n3n2)n1`, inactive: 71%. Consider `Cn1ccc2cc(S(=O)(=O)N3CCCC(C(=O)NCc4ccc(F)cc4)C3)ccc21` (stereo not drawn), for which the survival was inactive: 63%.

With `CC1Cc2ccccc2N1C(=O)c1nc2ccccc2s1` (stereo not drawn), the survival was inactive: 89%. Consider `Cc1ccc(C)c(NC(=O)Cn2c(=O)n(-c3ccccc3C)c(=O)c3c2c2cc(C)ccc2n3C)c1`, for which the survival is inactive: 90%.

For `Cc1ccc(C(C)C)c(OCC(=O)NCC2(N3CCOCC3)CCCCC2)c1`, the survival was inactive: 48%. `Cc1cccc(C(=O)Nc2cccc(OCc3cc(=O)n4cc(C)sc4n3)c2)c1`: the survival is inactive: 75%.

(Values after PubChem BioAssay AID463173 (ICCB-Longwood Screening Facility, Harvard Medical School, 2010).)
